Reference: the supplement of paper PMC10126150
Sequences with one replicate were seen in a single cluster, so their values are uncertain.

Tested on: ATP
Test: switch fluorescence ratio, 500 uM ATP over buffer (Cy3 cluster intensity, sum of 5 cycles each) (fold (ratio)); higher = stronger signal-on switching upon ATP binding; sequences stand for … in TCGTCGGCAGCGTCAGATGTGTATAAGAGACAGTTTTTTTTTTTTTTTTTTTTTTTTT…TC
Conditions: aptamer strand: ATP DNA aptamer (quencher-CACCTGGGGGAGTATTGCGGAGGAAGG + anchor), 100 nM annealed; ATP concentration: 500 uM; one replicate
In short: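 After annealing to 100 nM quencher-labelled ATP aptamer, Cy3-labelled switching-strand clusters on a modified Illumina MiSeq flow-cell were imaged in selection buffer. A second image followed after 15 min with 500 uM ATP at 22 °C, and five such buffer/ATP cycles were done, each separated by NaOH stripping and re-annealing. The fluorescence ratio, averaged per switch-domain sequence, is summed target-cycle over summed buffer-cycle Cy3 intensity per cluster, with clusters outside 100-1000 RFU excluded.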
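Also: ATP exposure 15 min at 22 °C before imaging.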

Row | Sequence | switch fluorescence ratio
1 | AATCGTGATG | 1.01
2 | AATCTAAAGC | 1.01
3 | AATCTACCCG | 1.03
4 | AATCTCTTCT | 1
5 | AATCTGTATG | 1.06
6 | AATCTTAG | 1.01
7 | AATCTTAGA | 1
8 | AATCTTCA | 1.13
9 | AATCTTCAAA | 1.07
10 | AATGAACATT | 0.993
11 | AATGAAGGGA | 0.983
12 | AATGACGCGT | 0.982
13 | AATGAGATTT | 1.01
14 | AATGATCTTA | 1.04
15 | AATGATGTCT | 0.99
16 | AATGCACTAT | 1.03
17 | AATGCCGTTG | 0.986
18 | AATGCCTTGA | 1.03
19 | AATGCGCCCA | 1.02
20 | AATGCGGGA | 1.01
21 | AATGCTATGT | 1.02
22 | AATGCTTATG | 1.06
23 | AATGCTTGAT | 1.02
24 | AATGCTTTTT | 0.989
25 | AATGGAACCT | 2.17

Row | Sequence | switch fluorescence ratio
26 | AATGGACCAT | 0.992
27 | AATGGACTGC | 1.11
28 | AATGGCCCTG | 1.01
29 | AATGGGAACT | 0.971
30 | AATGGGTATA | 1.04
31 | AATGGTTCC | 1.05
32 | AATGGTTG | 1.02
33 | AATGGTTTC | 0.981
34 | AATGGTTTTA | 1.03
35 | AATGTACAGG | 1.04
36 | AATGTAGGTG | 0.994
37 | AATGTATCT | 1
38 | AATGTATTA | 1.1
39 | AATGTGAGGC | 0.944
40 | AATGTGGTTA | 0.973
41 | AATGTTGCAG | 0.998
42 | AATGTTTCGT | 1
43 | AATTAATTAC | 0.998
44 | AATTACGCAT | 1.26
45 | AATTACTATT | 1.03
46 | AATTACTCTC | 0.964
47 | AATTACTGGT | 1.2
48 | AATTAGAA | 0.971
49 | AATTAGACTC | 1.01
50 | AATTAGGAGG | 1

Row | Sequence | switch fluorescence ratio
51 | AATTAGGCCA | 0.979
52 | AATTATAAGG | 1.05
53 | AATTATCC | 1.01
54 | AATTATCCG | 0.974
55 | AATTATGGCA | 1.01
56 | AATTATTCAG | 1.01
57 | AATTATTCCG | 1.02
58 | AATTATTGCG | 1
59 | AATTATTTAC | 1.04
60 | AATTCACTCT | 1.02
61 | AATTCAGACC | 1.02
62 | AATTCAGGTC | 1
63 | AATTCATTTA | 0.988
64 | AATTCCGCAT | 3.76
65 | AATTCCGGTT | 1
66 | AATTCGTCTT | 0.97
67 | AATTCGTGCT | 0.978
68 | AATTCTACGT | 1
69 | AATTGAATGG | 0.99
70 | AATTGACAC | 1.04
71 | AATTGCGGGC | 1.01
72 | AATTGGCTAT | 1.01
73 | AATTGGGATC | 0.986
74 | AATTGTCACA | 1.02
75 | AATTGTTCAG | 1.03

Row | Sequence | switch fluorescence ratio
76 | AATTGTTGAC | 1.03
77 | AATTGTTTCC | 1.36
78 | AATTTCCTG | 1.04
79 | AATTTCGATT | 0.994
80 | AATTTCGGTT | 1
81 | AATTTCGTGT | 0.975
82 | AATTTGACCG | 1
83 | AATTTGAGGT | 1.06
84 | AATTTGCAGG | 1
85 | AATTTGCCA | 1
86 | AATTTTGGG | 1
87 | ACAAACATGG | 1.09
88 | ACAAACCCTT | 1.15
89 | ACAAACGAGG | 1.3
90 | ACAAACGTA | 1.51
91 | ACAAACTATG | 1.11
92 | ACAAACTTCT | 1.16
93 | ACAAAGATTA | 1.04
94 | ACAAAGTAAC | 1.03
95 | ACAAAGTGT | 0.97
96 | ACAAATTACT | 1.07
97 | ACAACATAGG | 1
98 | ACAACCAGTC | 0.855
99 | ACAACCCCTA | 1.14
100 | ACAACGGCTG | 1.01
